Measured values as given in the supplement of paper PMC10369915.
The list shows a part of the results. Rule as the data show it: active = 3.2 or more and inactive = the rest. The signal is at background level for most entries.

Legend:
Test in all cases: enrichment score (SH2-bound / input frequency) (ratio); bacterial display of known human phosphotyrosine sites (pTyr-Var adds point mutants) read by sequencing; higher = stronger binding; tyrosines were phosphorylated by kinases first
Details in all cases: peptide library: Human pTyr
SHP2 C-SH2 domain E139D = molecular target: SHP2 C-SH2 domain E139D
[1] = molecular target: SHP2 C-SH2 domain wild-type
SHP2 N-SH2 domain L43F = molecular target: SHP2 N-SH2 domain L43F
SHP2 N-SH2 domain T42A = molecular target: SHP2 N-SH2 domain T42A
SHP2 N-SH2 domain T52S = molecular target: SHP2 N-SH2 domain T52S
[2] = molecular target: SHP2 N-SH2 domain wild-type

Measured: enrichment score
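Also: displayed peptides selected on beads carrying the immobilized SH2 domain, with library peptides lacking any tyrosine serving as negative controls.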

B1: MILR1_HUMAN_313 (peptide)
chain: KHSQELQYATPVFQE
inactive: SHP2 C-SH2 domain E139D 1.08 | [1] 1.55 | [2] 2.35
active: SHP2 N-SH2 domain L43F 18.4 | SHP2 N-SH2 domain T42A 6.24 | SHP2 N-SH2 domain T52S 10.6

B2: MED28_HUMAN_64 (peptide)
chain: ASLVSQDYVNGTDQE
inactive: SHP2 C-SH2 domain E139D 0.602 | [1] 0.65 | SHP2 N-SH2 domain L43F 0.781 | SHP2 N-SH2 domain T42A 0.692 | SHP2 N-SH2 domain T52S 0.629 | [2] 0.703

B3: MUSK_HUMAN_756_YA (peptide)
chain: NIASADAYKANENDA
inactive: SHP2 C-SH2 domain E139D 0.704 | [1] 0.767 | SHP2 N-SH2 domain L43F 0.744 | SHP2 N-SH2 domain T42A 0.895 | SHP2 N-SH2 domain T52S 0.83 | [2] 0.796

B4: MFA3L_HUMAN_287 (peptide)
chain: AADRDEVYTIPNSLK
inactive: SHP2 C-SH2 domain E139D 0.668 | [1] 0.562 | SHP2 N-SH2 domain L43F 0.476 | SHP2 N-SH2 domain T42A 0.604 | SHP2 N-SH2 domain T52S 0.723 | [2] 0.91

B5: MUC1_HUMAN_1218 (peptide)
chain: TYHTHGRYVPPSSTD
inactive: SHP2 C-SH2 domain E139D 1.8 | [1] 1.72 | SHP2 N-SH2 domain L43F 1.69 | SHP2 N-SH2 domain T42A 1.83 | SHP2 N-SH2 domain T52S 1.92 | [2] 2.39

B6: MMP13_HUMAN_366 (peptide)
chain: GYDILEGYPKKISEL
inactive: SHP2 C-SH2 domain E139D 0.68 | [1] 0.652 | SHP2 N-SH2 domain L43F 0.648 | SHP2 N-SH2 domain T42A 0.467 | SHP2 N-SH2 domain T52S 0.761 | [2] 0.605

B7: MMP13_HUMAN_366_YA (peptide)
chain: GADILEGYPKKISEL
inactive: SHP2 C-SH2 domain E139D 0.717 | [1] 0.626 | SHP2 N-SH2 domain L43F 0.74 | SHP2 N-SH2 domain T42A 0.703 | SHP2 N-SH2 domain T52S 0.587 | [2] 0.787

B8: MUC1_HUMAN_1218_YA (peptide)
chain: TAHTHGRYVPPSSTD
inactive: SHP2 C-SH2 domain E139D 1.28 | [1] 1.15 | SHP2 N-SH2 domain L43F 1.1 | SHP2 N-SH2 domain T42A 1.41 | SHP2 N-SH2 domain T52S 1.47 | [2] 1.27

B9: MDM4_HUMAN_55 (peptide)
chain: TVKEVMHYLGQYIMV
inactive: SHP2 C-SH2 domain E139D 2.17 | [1] 2.39 | SHP2 N-SH2 domain L43F 2.39 | SHP2 N-SH2 domain T42A 2.44 | SHP2 N-SH2 domain T52S 2.24
active: [2] 3.33

B10: ANK2_HUMAN_531 (peptide)
chain: DAATTNGYTPLHISA
inactive: SHP2 C-SH2 domain E139D 0.699 | [1] 0.568 | SHP2 N-SH2 domain L43F 0.636 | SHP2 N-SH2 domain T42A 0.681 | SHP2 N-SH2 domain T52S 0.577 | [2] 0.557

B11: MELK_HUMAN_367 (peptide)
chain: VTASDKNYVAGLIDY
inactive: SHP2 C-SH2 domain E139D 0.66 | [1] 0.601 | SHP2 N-SH2 domain L43F 0.675 | SHP2 N-SH2 domain T42A 0.59 | SHP2 N-SH2 domain T52S 0.581 | [2] 0.537

B12: MET_HUMAN_1349_YA (peptide)
chain: STFIGEHYVHVNATA
inactive: SHP2 C-SH2 domain E139D 0.86 | [1] 0.794 | SHP2 N-SH2 domain L43F 0.607 | SHP2 N-SH2 domain T42A 0.639 | SHP2 N-SH2 domain T52S 0.72 | [2] 0.675

B13: MILR1_HUMAN_338_YA (peptide)
chain: SAKSGAVYSELNFGG
inactive: SHP2 C-SH2 domain E139D 0.869 | [1] 1.33 | SHP2 N-SH2 domain L43F 3 | SHP2 N-SH2 domain T52S 1.91 | [2] 0.697
active: SHP2 N-SH2 domain T42A 5.55

B14: MELK_HUMAN_438 (peptide)
chain: SAVKNEEYFMFPEPK
inactive: SHP2 C-SH2 domain E139D 0.673 | [1] 1.03 | SHP2 N-SH2 domain L43F 0.724 | SHP2 N-SH2 domain T42A 1 | SHP2 N-SH2 domain T52S 0.934 | [2] 0.819

B15: MMP14_HUMAN_573 (peptide)
chain: GTPRRLLYCQRSLLD
inactive: SHP2 C-SH2 domain E139D 1.12 | [1] 1.11 | SHP2 N-SH2 domain L43F 1.14 | SHP2 N-SH2 domain T42A 1.22 | SHP2 N-SH2 domain T52S 1.08 | [2] 1.3

B16: MUC1_HUMAN_1203_YA (peptide)
chain: IFPARDTYHPMSEAP
inactive: SHP2 C-SH2 domain E139D 0.731 | [1] 0.637 | SHP2 N-SH2 domain L43F 0.809 | SHP2 N-SH2 domain T42A 0.738 | SHP2 N-SH2 domain T52S 0.662 | [2] 0.758

B17: MUC1_HUMAN_1203 (peptide)
chain: IFPARDTYHPMSEYP
inactive: SHP2 C-SH2 domain E139D 0.583 | [1] 0.65 | SHP2 N-SH2 domain L43F 0.613 | SHP2 N-SH2 domain T42A 0.705 | SHP2 N-SH2 domain T52S 0.911 | [2] 0.501

B18: MERTK_HUMAN_753 (peptide)
chain: KKIYSGDYYRQGRIA
inactive: SHP2 C-SH2 domain E139D 1.85 | [1] 1.86 | SHP2 N-SH2 domain L43F 1.59 | SHP2 N-SH2 domain T42A 1.4 | SHP2 N-SH2 domain T52S 1.84 | [2] 2.32

B19: MK14_HUMAN_323 (peptide)
chain: DEPVADPYDQSFESR
inactive: SHP2 C-SH2 domain E139D 1.1 | [1] 0.881 | SHP2 N-SH2 domain L43F 0.906 | SHP2 N-SH2 domain T42A 0.976 | SHP2 N-SH2 domain T52S 0.998 | [2] 1.05

B20: MK12_HUMAN_185_YA (peptide)
chain: ADSEMTGYVVTRWAR
inactive: SHP2 C-SH2 domain E139D 2.04 | [1] 1.57 | SHP2 N-SH2 domain L43F 1.51 | SHP2 N-SH2 domain T42A 1.44 | SHP2 N-SH2 domain T52S 1.65 | [2] 1.39

B21: MDM4_HUMAN_55_YA (peptide)
chain: TVKEVMHYLGQAIMV
inactive: SHP2 C-SH2 domain E139D 1.45 | [1] 1.67 | SHP2 N-SH2 domain L43F 1.58 | SHP2 N-SH2 domain T42A 1.19 | SHP2 N-SH2 domain T52S 1.89 | [2] 1.99

B22: 41_HUMAN_222 (peptide)
chain: SLLDDTVYECVVEKH
inactive: SHP2 C-SH2 domain E139D 1.14 | [1] 0.978 | SHP2 N-SH2 domain L43F 1.08 | SHP2 N-SH2 domain T42A 1.07 | SHP2 N-SH2 domain T52S 1.26 | [2] 1.11

B23: MK11_HUMAN_182 (peptide)
chain: ADEEMTGYVATRWYR
inactive: SHP2 C-SH2 domain E139D 1.05 | [1] 0.846 | SHP2 N-SH2 domain L43F 1 | SHP2 N-SH2 domain T42A 0.86 | SHP2 N-SH2 domain T52S 0.893 | [2] 0.981

B24: MGRN1_HUMAN_411 (peptide)
chain: AIPSAPLYEEITYSG
inactive: SHP2 C-SH2 domain E139D 0.587 | [1] 0.604 | SHP2 N-SH2 domain L43F 0.792 | SHP2 N-SH2 domain T42A 0.562 | SHP2 N-SH2 domain T52S 0.631 | [2] 0.659

B25: MSH2_HUMAN_238 (peptide)
chain: DFSTKDIYQDLNRLL
inactive: SHP2 C-SH2 domain E139D 1.09 | [1] 1.12 | SHP2 N-SH2 domain L43F 1.55 | SHP2 N-SH2 domain T42A 1.12 | SHP2 N-SH2 domain T52S 1.13 | [2] 1.25

B26: MPP6_HUMAN_500 (peptide)
chain: SARIQRAYNHYFDLI
inactive: SHP2 C-SH2 domain E139D 1.73 | [1] 1.54 | SHP2 N-SH2 domain L43F 1.65 | SHP2 N-SH2 domain T42A 1.62 | SHP2 N-SH2 domain T52S 1.57 | [2] 1.96

B27: MELK_HUMAN_367_YA (peptide)
chain: VTASDKNYVAGLIDA
inactive: SHP2 C-SH2 domain E139D 0.677 | [1] 0.703 | SHP2 N-SH2 domain L43F 0.579 | SHP2 N-SH2 domain T42A 0.725 | SHP2 N-SH2 domain T52S 0.525 | [2] 0.63

B28: MK08_HUMAN_185 (peptide)
chain: TSFMMTPYVVTRYYR
inactive: SHP2 C-SH2 domain E139D 1.72 | [1] 0.969 | SHP2 N-SH2 domain L43F 1.45 | SHP2 N-SH2 domain T42A 1.14 | SHP2 N-SH2 domain T52S 1.27 | [2] 1.13

B29: MK13_HUMAN_182 (peptide)
chain: ADAEMTGYVVTRWYR
inactive: SHP2 C-SH2 domain E139D 2.12 | [1] 1.92 | SHP2 N-SH2 domain L43F 1.77 | SHP2 N-SH2 domain T42A 1.68 | SHP2 N-SH2 domain T52S 1.97 | [2] 1.95

B30: MPP6_HUMAN_500_YA (peptide)
chain: SARIQRAYNHAFDLI
inactive: SHP2 C-SH2 domain E139D 0.773 | [1] 0.729 | SHP2 N-SH2 domain L43F 0.685 | SHP2 N-SH2 domain T42A 0.694 | SHP2 N-SH2 domain T52S 0.698 | [2] 0.776

B31: MUSK_HUMAN_756 (peptide)
chain: NIYSADYYKANENDA
inactive: SHP2 C-SH2 domain E139D 0.885 | [1] 1.01 | SHP2 N-SH2 domain L43F 0.915 | SHP2 N-SH2 domain T42A 0.929 | SHP2 N-SH2 domain T52S 0.987 | [2] 1.17

B32: MK11_HUMAN_182_YA (peptide)
chain: ADEEMTGYVATRWAR
inactive: SHP2 C-SH2 domain E139D 0.892 | [1] 0.695 | SHP2 N-SH2 domain L43F 0.758 | SHP2 N-SH2 domain T42A 0.75 | SHP2 N-SH2 domain T52S 0.829 | [2] 0.933

B33: MUSK_HUMAN_751 (peptide)
chain: FGLSRNIYSADYYKA
inactive: SHP2 C-SH2 domain E139D 0.805 | [1] 0.954 | SHP2 N-SH2 domain L43F 0.831 | SHP2 N-SH2 domain T42A 0.791 | SHP2 N-SH2 domain T52S 0.697 | [2] 0.637

B34: MK08_HUMAN_185_YA (peptide)
chain: TSFMMTPYVVTRAAR
inactive: SHP2 C-SH2 domain E139D 1.24 | [1] 0.834 | SHP2 N-SH2 domain L43F 1.21 | SHP2 N-SH2 domain T42A 1.46 | SHP2 N-SH2 domain T52S 1.36 | [2] 0.819

B35: MELK_HUMAN_163 (peptide)
chain: KPKGNKDYHLQTCCG
inactive: SHP2 C-SH2 domain E139D 1.24 | [1] 1.21 | SHP2 N-SH2 domain L43F 1.13 | SHP2 N-SH2 domain T42A 1.15 | SHP2 N-SH2 domain T52S 1.31 | [2] 2.06

B36: MDM4_HUMAN_99 (peptide)
chain: VKDPSPLYDMLRKNL
inactive: SHP2 C-SH2 domain E139D 0.993 | [1] 1 | SHP2 N-SH2 domain L43F 1.2 | SHP2 N-SH2 domain T42A 1.04 | SHP2 N-SH2 domain T52S 1.05 | [2] 1.07
